Reference: the supplement of paper PMC4604168 (melanoma cell lines)
The other results are listed elsewhere or left out. Single values are uncertain, as repeats are few or missing.
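Note: cells treated in 1,536-well plates, then fixed and DAPI-stained, with nuclei counted from automated high-throughput microscope images.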

Each compound was assayed on COLO792 (assay: cell count relative to DMSO control; melanoma cells; higher = more viable cells). Conditions: library dose: standard library concentration; 72 h.
Work on `N#CC[C@H](C1CCCC1)n1cc(-c2ncnc3[nH]ccc23)cn1` [ruxolitinib] + O=C(O)C(=O)Nc1sc2c(c1C(=O)O)CCNC2 [TCS401] (first compound 5 µM, partner dose 8.33333 µM) yielded a cell count of 83.7%. `Cc1cc(Nc2cc(N3CCN(C)CC3)nc(Sc3ccc(NC(=O)C4CC4)cc3)n2)n[nH]1` [Tozasertib] + COc1cc2ncnc(Nc3ccc(Oc4ccccc4)cc3)c2cc1OC [SrcI1] (first compound 0.03 µM, partner dose 10 µM) was tested, and the cell count was 51.5%. With `Cc1cc(Nc2cc(N3CCN(C)CC3)nc(Sc3ccc(NC(=O)C4CC4)cc3)n2)n[nH]1` [Tozasertib] + CN(c1ncccc1CNc1nc(Nc2ccc3c(c2)CC(=O)N3)ncc1C(F)(F)F)S(C)(=O)=O [PF562271] (first compound 0.03 µM, partner dose 0.4 µM) the cell count was 52.5%. `N#CC[C@H](C1CCCC1)n1cc(-c2ncnc3[nH]ccc23)cn1` [ruxolitinib] + Cn1cnc2c(F)c(Nc3ccc(Br)cc3Cl)c(C(=O)NOCCO)cc21 [selumetinib] (first compound 5 µM, partner dose 0.075 µM) gave a cell count of 78.9%. Compound `N#CC[C@H](C1CCCC1)n1cc(-c2ncnc3[nH]ccc23)cn1` [ruxolitinib] + c1cc(-c2cnn3cc(-c4ccc(OCCN5CCCCC5)cc4)cnc23)ccn1 [Dorsomorphin] (first compound 5 µM, partner dose 2 µM) has a cell count of 72.5%. For `Cc1cc(Nc2cc(N3CCN(C)CC3)nc(Sc3ccc(NC(=O)C4CC4)cc3)n2)n[nH]1` [Tozasertib] + Cc1cn(-c2cc(NC(=O)c3ccc(C)c(Nc4nccc(-c5cccnc5)n4)c3)cc(C(F)(F)F)c2)cn1 [nilotinib] (first compound 0.03 µM, partner dose 1 µM), the cell count was 84.4%. With `CC[C@]1(O)C[C@H]2CN(CCc3c([nH]c4ccccc34)[C@@](C(=O)OC)(c3cc4c(cc3OC)N(C=O)[C@H]3[C@@](O)(C(=O)OC)[C@H](OC(C)=O)[C@]5(CC)C=CCN6CC[C@]43[C@@H]65)C2)C1` [vincristine] + Cc1nc(Nc2ncc(C(=O)Nc3c(C)cccc3Cl)s2)cc(N2CCN(CCO)CC2)n1 [dasatanib] (first compound 0.0005 µM, partner dose 0.02 µM) the cell count was 38%. Work on `CC[C@]1(O)C[C@H]2CN(CCc3c([nH]c4ccccc34)[C@@](C(=O)OC)(c3cc4c(cc3OC)N(C=O)[C@H]3[C@@](O)(C(=O)OC)[C@H](OC(C)=O)[C@]5(CC)C=CCN6CC[C@]43[C@@H]65)C2)C1` [vincristine] + O=C(O)c1ccc2c(c1)nc(Nc1cccc(Cl)c1)c1ccncc12 [CX4945] (first compound 0.0005 µM, partner dose 2 µM) yielded a cell count of 83.9%. `N#CC[C@H](C1CCCC1)n1cc(-c2ncnc3[nH]ccc23)cn1` [ruxolitinib] + O=C(Nc1cccc(Cl)c1)Nc1ncc(CCNc2ncnc3ccsc23)s1 [SNS314] (first compound 5 µM, partner dose 0.004 µM) showed a cell count of 29%. In the case of `CC[C@]1(O)C[C@H]2CN(CCc3c([nH]c4ccccc34)[C@@](C(=O)OC)(c3cc4c(cc3OC)N(C=O)[C@H]3[C@@](O)(C(=O)OC)[C@H](OC(C)=O)[C@]5(CC)C=CCN6CC[C@]43[C@@H]65)C2)C1` [vincristine] + Cn1c(Nc2ccc(C(F)(F)F)cc2)nc2cc(Oc3ccnc(-c4ncc(C(F)(F)F)[nH]4)c3)ccc21 [CHIR265] (first compound 0.0005 µM, partner dose 0.4 µM), the cell count is reported as 26%. `Cc1cc(Nc2cc(N3CCN(C)CC3)nc(Sc3ccc(NC(=O)C4CC4)cc3)n2)n[nH]1` [Tozasertib] + Nc1nc(F)nc2c1ncn2[C@@H]1O[C@H](CO)[C@@H](O)[C@@H]1O [fludarabine] (first compound 0.03 µM, partner dose 1 µM) showed a cell count of 59.2%. With `Cc1cc(Nc2cc(N3CCN(C)CC3)nc(Sc3ccc(NC(=O)C4CC4)cc3)n2)n[nH]1` [Tozasertib] + COc1cc(N2CCC(N3CCN(C)CC3)CC2)ccc1Nc1ncc(Cl)c(Nc2ccccc2S(=O)(=O)C(C)C)n1 [NVP-TAE684] (first compound 0.03 µM, partner dose 0.4 µM) the cell count was 80.5%. In the case of `Cc1cc(Nc2cc(N3CCN(C)CC3)nc(Sc3ccc(NC(=O)C4CC4)cc3)n2)n[nH]1` [Tozasertib] + C=C(c1ccc(C(=O)O)cc1)c1cc2c(cc1C)C(C)(C)CCC2(C)C [Bexarotene] (first compound 0.03 µM, partner dose 10 µM), the cell count is reported as 90.8%. With `Cc1cc(Nc2cc(N3CCN(C)CC3)nc(Sc3ccc(NC(=O)C4CC4)cc3)n2)n[nH]1` [Tozasertib] + CC(=O)O[C@@]12CO[C@@H]1C[C@H](O)[C@@]1(C)C(=O)[C@H](O)C3=C(C)[C@@H](OC(=O)[C@H](O)[C@@H](NC(=O)OC(C)(C)C)c4ccccc4)C[C@@](O)([C@@H](OC(=O)c4ccccc4)[C@H]21)C3(C)C [Docetaxel] (first compound 0.03 µM, partner dose 0.0005 µM) the cell count was 26.9%.
